# Structures can show the parent of a compound that is named as a salt. Whole data set: some 2,800 compounds, median “cell viability relative to vehicle” near 1.1, cut for the lowest 2% near 0.19. The list shows a part of the results.
# Test system: NCI-H2228 parental
# Assay: cell viability relative to vehicle (fraction of vehicle); NCI-H2228 is an ALK-positive lung cancer line and DTP means drug-tolerant persister; higher = less growth inhibition
# Settings: 100 nM; treatment time 6 days
# Outline: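 Each value is viability relative to vehicle-treated cells, measured as ATP with the CellTiter-Glo 3D Cell Viability Assay. Parental NCI-H2228 cells and drug-tolerant persisters (1000 nM targeted drug, 13 days) in 384-well plates received the 3114-agent TargetMol anti-cancer compound library at 100 nM, or DMSO, and were read 6 days later.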
row,SMILES,cell viability
1,C[C@@H]1CC[C@]2(NC1)O[C@H]1C[C@H]3[C@@H]4CC=C5C[C@@H](O)CC[C@]5(C)[C@H]4CC[C@]3(C)[C@H]1[C@@H]2C [Solasodine],0.97
2,Cn1c(COP(=O)(NCCBr)NCCBr)cnc1[N+](=O)[O-] [Evofosfamide],1.15
3,COc1ccc(OC)c(C(O)C(C)N)c1 (stereo not drawn) [Methoxamine hydrochloride],1.08
4,Cc1c(N[C@@H](c2nnc(-c3ccc(C#N)cc3)o2)[C@H](C)O)ccc(C#N)c1Cl [Testolone],1.2
5,OC(c1ccccc1)(c1ccccc1)C1CCNCC1 [Ataractan],1.15
6,C[N+]1(C)CCCC(OC(=O)C(O)(c2ccccc2)c2ccccc2)C1 (stereo not drawn) [Mepenzolate Bromide],0.893
7,COc1cc(OC)c(OC)cc1C=O [Asarylaldehyde],1.22
8,CCC1(C)CC(=O)NC(=O)C1 [Bemegrid],1.32
9,C/C(O)=C(\C#N)C(=O)Nc1cc(Br)ccc1Br,1.08
10,OC1C[C@H]2CC[C@@H](C1)N2 (stereo partly drawn) [Nortropine],0.954
11,COc1cc([C@@H]2c3cc4c(cc3[C@@H](O)[C@H]3COC(=O)[C@H]23)OCO4)cc(OC)c1O [4'-Demethylepipodophyllotoxin],0.402
12,Cc1ccccc1-n1c(Cn2ncc3c(N)ncnc32)nc2cccc(C)c2c1=O,1.03
13,CN(C)C(=O)Oc1ccc[n+](C)c1 [Mestinon],1.23
14,O=c1[nH]c2ccccc2n1C1CCN(CCCC(c2ccc(F)cc2)c2ccc(F)cc2)CC1 [Pimozide],1.07
15,CC(C)NCC(O)c1ccccc1Cl (stereo not drawn) [Clorprenaline hydrochloride],0.941
16,CC1=C2C[C@H]3[C@@H](CC=C4C[C@@H](O)CC[C@@]43C)[C@@H]2CC[C@]12O[C@@H]1C[C@H](C)CN[C@H]1[C@H]2C [Cyclopamine],1.17
17,CCCCCCCCC(=O)NCc1ccc(O)c(OC)c1 [Nonivamide],0.917
18,C[C@@H]1C(=O)O[C@H]2[C@H](O)[C@@]34O[C@@H]5OC(=O)[C@H](O)[C@@]56[C@H](C(C)(C)C)[C@H](O)C(OC3=O)[C@]64[C@@]12O (stereo partly drawn) [Ginkgolide C],1.08
19,CN[C@@H](Cc1c[nH]c2ccccc12)C(=O)O [Abrine],1.08
20,NCCCNCCSP(=O)(O)O [Amifostine],0.986
21,COC1=C[C@]23CCCN2CCc2cc4c(cc2[C@@H]3[C@@H]1O)OCO4 [Cephalotaxine],1.13
22,c1ccc2c(c1)[nH]c1cnccc12 [Norharmane],0.982
23,N#CC(C#N)=Cc1ccc([N+](=O)[O-])c(O)c1,1.07

# From the supplement of paper PMC10600219
